Test results as given in PubChem BioAssay AID463173 (ICCB-Longwood Screening Facility, Harvard Medical School, 2010).
Out of some 52,000 compounds screened, about 1,700 (3.3%) were called active. Cut-off read from the data, not from the text of the source: active = survival mostly below about 52% (no sharp cut-off); inactive = mostly above about 56%. The list shows a part of the results.

These compounds were tested on Wild type (assay: S. aureus survival, RN4220 and DeltatarO strains – OD600, teichoic acid synthesis inhibitors, primary screen (AID 463173)). Details: S. aureus RN4220 wild type/DeltatarO growth, OD600, 18 h, hits give low values, screened at 18.75 µg/mL (by protocol).

Row | SMILES | survival
1 | COc1cccc(C2C=C(c3ccccc3)Nc3c(C(=O)Nc4ccccc4)cnn32)c1OC (stereo unspecified) | inactive: 64%
2 | COc1cc(C(CC(=O)Nc2cccc(C(C)=O)c2)N2Cc3ccccc3C2=O)cc(OC)c1OC (stereo unspecified) | inactive: 93%
3 | CC(=O)Nc1nonc1-c1nnc(SCC(=O)Nc2cc(Cl)ccc2C)n1C | inactive: 121%
4 | CCOC(=O)c1c(NC(=O)/C=C/c2ccc(C)cc2)sc(C(C)=O)c1C | inactive: 74%
5 | CCOC(=O)c1cc(S(=O)(=O)NCc2cccc(Cl)c2)[nH]n1 | inactive: 85%
6 | Cn1c(=O)c2c(nc(NCCc3ccccc3)n2Cc2ccc(Cl)cc2)n(C)c1=O | inactive: 74%
7 | Cc1cccc(C(=O)Nc2sc3c(c2C(=O)NC(C)C)CCCC3)c1 | inactive: 69%
8 | CCOC(=O)c1cnc2cc(F)c(F)cc2c1Nc1ccccc1O | inactive: 169%
9 | CC(C)(C)OC(=O)N1CCC(c2c(C(=O)N3CCCCC3)cnn2-c2cccc(F)c2)CC1 | inactive: 134%
10 | Cc1ccc(C)c(NC(=O)CSc2nnc(-c3cc4occc4n3C)n2-c2ccccc2C)c1 | inactive: 71%
11 | Cc1ccc(CNC(=O)CSc2ncc3c(n2)-c2ccc(Cl)cc2N(Cc2ccccc2)S3(=O)=O)cc1 | inactive: 91%
12 | Cc1ccc(NS(=O)(=O)c2cc3[nH]c(=O)c(=O)[nH]c3cc2C)cc1N(C)C | inactive: 81%
13 | CCc1ccccc1NC(=O)[C@@H](c1ccccc1)N1Cc2ccccc2C1=O | inactive: 22%
14 | Cc1ccc(NC(=O)CCCn2c(=O)c3cccn3c3cccnc32)cc1C | inactive: 89%
15 | CC(=O)c1ccc(N2CCN(C(=O)CCc3nnc4n(C)c(=O)c5sccc5n34)CC2)cc1 | inactive: 64%
16 | COc1cc(OC)c(NC(=O)c2noc3c2CSc2ccccc2-3)cc1Cl | inactive: 91%
17 | CCCCn1c(SCC(=O)Nc2ccc(OCC)cc2)nc2ccsc2c1=O | inactive: 134%
18 | CC1(C)CC(=O)c2c(oc3c(Cl)cc(NS(=O)(=O)c4ccc(Br)cc4)cc23)C1 | inactive: 76%
19 | CC(=O)N1CCc2c(sc3c2c(=O)n(-c2cc(Cl)ccc2C)c(=O)n3Cc2ccccc2F)C1 | inactive: 123%
20 | CC(C)CC(=O)Nc1ccccc1OCc1cc(=O)n2ccccc2n1 | inactive: 67%
21 | N#C/C(=C/c1ccc(-c2ccc(Cl)c(C(=O)O)c2)o1)C(=O)NC1CCCC1 | inactive: 111%
22 | COC(=O)c1cc(Cl)ccc1NC(=O)CSc1ncc(S(=O)(=O)c2ccc(Br)cc2)c(=O)[nH]1 | inactive: 59%

Row | SMILES | survival
23 | O=C(Nc1ccc(Br)cc1F)N1CCC(CN2CCc3ccccc3C2)CC1 | inactive: 63%
24 | Cc1ccc(C)n1/N=C1\NC(=O)CS1 | inactive: 109%
25 | COc1ccc(C(=O)COC(=O)CCCC(=O)Nc2cc(C(F)(F)F)ccc2Cl)cc1 | inactive: 70%
26 | CCCCOC(=O)c1ccc(NC(=O)c2cc(-c3cccs3)on2)cc1 | inactive: 97%
27 | Cc1ccc(Nc2c(-c3ccc(C)s3)nc3ncccn23)cc1 | inactive: 43%
28 | CCOC(=O)c1c(NC(=O)/C=C/c2ccc(C)cc2)sc2c1CCCC2 | inactive: 34%
29 | COc1ccc(OCC(=O)OCc2cc(=O)n3nc(C4CC4)sc3n2)cc1 | inactive: 55%
30 | Cc1ccc(NC(=O)C(=O)NCC(c2ccc3c(c2)OCO3)N2CCOCC2)cc1C (stereo unspecified) | inactive: 45%
31 | CCC(C)NC(=O)c1ccc2nc(CCc3ccccc3)oc2c1 (stereo unspecified) | inactive: 68%
32 | COc1ccccc1CNC(=O)c1ccc(-c2nc(CS(=O)(=O)c3ccc(C)cc3)c(C)o2)cc1 | inactive: 69%
33 | Cc1ccc(CNC(=O)CCCc2nnc3n(C)c(=O)c4sccc4n23)cc1 | inactive: 92%
34 | O=C(NCCc1ccc(Cl)cc1)c1cc(-c2ccc(Cl)cc2)n[nH]1 | inactive: 86%
35 | O=C(CSc1nc(-c2ccccc2)nc2c1Cc1ccccc1O2)N1CCCCC1 | inactive: 62%
36 | CC1=C(C(=O)Nc2ccccc2)C(c2cccc(Cl)c2)n2nc(SCC(=O)c3ccc(C)cc3)nc2N1 (stereo unspecified) | inactive: 64%
37 | CCOc1ccc(NC(=O)CCCc2nnc3n(C)c(=O)c4sccc4n23)cc1 | inactive: 102%
38 | O=C(NCc1ccccc1F)C(=O)NCC(c1ccco1)S(=O)(=O)c1cccs1 (stereo unspecified) | inactive: 19%
39 | Cc1cccc(OCC(=O)Nc2ccccc2C(=O)OCc2cc(=O)n3nc(C)sc3n2)c1 | inactive: 74%
40 | Cc1ccc(Cn2c(=O)n(CCCCC(=O)NCc3ccccc3Cl)c(=O)c3ccccc32)cc1 | inactive: 114%
41 | O=c1[nH]c2ccc(NCc3ccc(-c4ccccc4)o3)cc2[nH]1 | inactive: 88%
42 | CCc1c(C)nc2c(C)cccc2c1SCCC#N | inactive: 111%
43 | CCOc1ccccc1Nc1sc(C(=O)c2ccccc2)c(N)c1S(=O)(=O)c1ccc(C)cc1 | inactive: 81%
44 | O=C(Nc1ccc2oc(-c3ccc4ccccc4c3)nc2c1)c1ccc(Cl)c(Cl)c1 | inactive: 99%

Row | SMILES | survival
45 | Cc1ccc(CCNC(=O)c2cc3c(-c4ccccc4F)nn(C)c3s2)cc1 | inactive: 75%
46 | COc1ccc(OC)c(NC(=O)c2cn(CC(C)C)c(=O)c3cc(OC)c(OC)cc23)c1 | inactive: 70%
47 | COCCCNC(=O)c1ccc2c(c1)nc(C)n2-c1cccc(C)c1 | inactive: 69%
48 | CCOc1ccc(-c2oc3ccc(C)cc3c(=O)c2O)cc1 | inactive: 82%
49 | Fc1ccc(Nc2ncnc3c2nc2n3CCCCC2)c(F)c1 | active: 14%
50 | CCN(c1ccccc1)S(=O)(=O)c1ccc(NC(=O)c2cc(=O)c3ccccc3o2)cc1 | inactive: 83%
51 | O=C(Nc1ccc(C(=O)OCc2cc(=O)n3nc(C4CC4)sc3n2)cc1)c1cccc(F)c1 | inactive: 63%
52 | CCOC(=O)c1c(S(=O)(=O)N2CCC(C(=O)Nc3ncccc3C)CC2)c(C)n(C)c1C | inactive: 72%
53 | CCOC(=O)c1cc(-c2ccc(OC)cc2)n(CCC(=O)NC2CCCCC2)c1C | inactive: 82%
54 | COc1ccc2c(CNC3CCCCCC3)c(C(=O)O)n(Cc3ccccc3F)c2c1 | inactive: 89%
55 | O=C(Nc1ccc(F)cc1)C1CCN(S(=O)(=O)c2ccc3c(c2)CCCN3C(=O)C2CCC2)CC1 | inactive: 102%
56 | CCC(=O)N1CCc2cc(Br)cc(S(=O)(=O)CCC(=O)N3CCN(c4cc(C)ccc4C)CC3)c21 | inactive: 59%
57 | CCCc1nnc(NC(=O)c2cc(=O)c3cc(C)c(C)cc3o2)s1 | inactive: 72%
58 | CCOC(=O)c1cnc2ccc(C)cc2c1Nc1ccc(N(CC)CC)cc1 | active: -2%
59 | Cc1c(C(=O)OC2CCCCC2)[nH]c2c1C(=O)CC(c1ccc(C(C)(C)C)cc1)C2 (stereo unspecified) | inactive: 84%
60 | CCc1ccccc1NC(=O)CN1C(=O)CCSc2ccc(S(=O)(=O)N3CCCC3)cc21 | inactive: 124%
61 | O=C(OCC1CCCO1)c1ccc2c(c1)N(Cc1ccccc1)C(=O)c1ccccc1S2(=O)=O (stereo unspecified) | inactive: 72%
62 | CCN(CC)S(=O)(=O)c1ccc2c(c1)nc(CN(C)C(=O)Nc1ccc(C)c(F)c1)n2C | inactive: 85%
63 | COC(=O)c1ccc(CSc2nc3c([nH]c4ccccc43)c(=O)n2-c2cccc(Cl)c2)o1 | inactive: 71%
64 | CCc1ccccc1NC(=O)C(C)n1c(=O)cc(C)c2c(C)nn(-c3ccccc3)c21 (stereo unspecified) | inactive: 72%
65 | CCOC(=O)C1CCCN(C(=O)Cn2ncc3c4ccccc4n(Cc4ccccc4)c3c2=O)C1 (stereo unspecified) | inactive: 121%
66 | COc1ccc(N2CCN(C(=O)COCc3cc(-c4ccc5c(c4)OCO5)on3)CC2)cc1 | inactive: 81%

Row | SMILES | survival
67 | COc1ccccc1NC(=O)c1cc2c(C)nn(-c3ccccc3)c2s1 | active: 1%
68 | Cc1ccc(NC(=O)c2nc(S(C)(=O)=O)ncc2N(Cc2ccco2)Cc2cccs2)cc1C | inactive: 77%
69 | COc1ccc(NC(=O)c2sc3nc(C(F)(F)F)cc(C)c3c2N)cc1OC | inactive: 130%
70 | O=C(NC1CCN(Cc2ccccc2)CC1)c1ccc(Cn2c(=O)c3ccccc3n(Cc3ccc(F)cc3)c2=O)cc1 | inactive: 90%
71 | Cc1cc(C)cc(Oc2nc3ccccn3c(=O)c2/C=C(\C#N)c2nc3ccccc3s2)c1 | inactive: 64%
72 | CCn1nc(-c2ccccc2)c(-c2ccccc2)c(C(=O)Nc2ccc(NC(C)=O)cc2)c1=O | inactive: 88%
73 | Cn1c(=O)cc(SCC(=O)N2CCN(c3ccccc3F)CC2)c2ccc(Cl)cc21 | inactive: 60%
74 | Cc1ccccc1OCCSc1nc2ccc(NC(=O)c3cccs3)cc2s1 | inactive: 74%
75 | COCCCNC(=O)CSc1nc2cc3c(cc2c(=O)n1CCCC(=O)NCc1ccc2c(c1)OCO2)OCO3 | inactive: 82%
76 | COc1ccc(OC)c(NC(=O)Nc2c(C)n(C)n(-c3ccccc3)c2=O)c1 | inactive: 85%
77 | Cc1ccc(Cn2ccnc2SCC(=O)Nc2nnc(C)s2)cc1 | inactive: 65%
78 | Cc1ccc(-c2csc(=Nc3ccccc3)n2Cc2ccc3c(c2)OCO3)cc1 | inactive: 69%
79 | COc1ccc(CNC(=O)c2cc3sccc3n2Cc2ccc(C)cc2)cc1 | inactive: 91%
80 | COCCCn1c(-c2ccc(S(=O)(=O)N3CCOCC3)cc2)csc1=Nc1ccccc1 | inactive: 46%
81 | CC1(c2ccc(Cl)cc2)CC(C)(C)N(C(=O)c2cccc(F)c2)c2ccccc21 (stereo unspecified) | active: 7%
82 | O=C(NCCN1CCCCC1)c1ccc(Cn2c(SCc3ccccc3)nc3cccnc32)cc1 | inactive: 140%
83 | NC(=O)C1(C(N)=O)CCC1 | inactive: 123%
84 | O=C(Cc1ccccc1)Nc1sc2c(c1C(=O)Nc1ccc(Br)cc1)CCCC2 | inactive: 86%
85 | CC(=O)c1ccc(NS(=O)(=O)c2ccc(-n3cccn3)cc2)cc1 | inactive: 131%
86 | Cc1ccc(NC(=O)C2CCN(c3nc(-c4ccc(C(C)C)cc4)no3)CC2)c(Cl)c1 | inactive: 71%
